According to publication PMC11995724, “Antibiotic target discovery by integrated phenotypic and activity-based profiling of electrophilic fragments” (Cell chemical biology, 2025):
Out of some 3,200 compounds screened, about 75 (2%) showed an effect of 50% or more. The list shows a part of the results.

The compounds below were run on T1, S. aureus MSSA476. Details: relative growth, OD600, TSB; 25 µM; inhibitor.
T1 construct: MSSA476
Design: species or system S. aureus MSSA476 (TSB) or V. cholerae SAD30 (LB); 384-well bacterial growth screen at 25 uM, OD600 relative to DMSO control

| SMILES | % of control remaining [%] |
| --- | --- |
| CC1CCCCC1NC(=O)CCl (stereo not drawn) [6-C10, 2-chloro-N-(2-methylcyclohexyl)acetamide] | 80.9268 |
| C=CC(=O)N1CCC(c2cnn(C)c2)CC1 [2-I10, 1-[4-(1-methyl-1H-pyrazol-4-yl)piperidin-1-yl]prop-2-en-1-one] | 104.439 |
| CC(C)NC(=O)C(C#N)=Cc1ccc(C#N)cc1 [9-M11, 2-cyano-3-(4-cyanophenyl)-N-(propan-2-yl)prop-2-enamide] | 106.367 |
| Cc1ccc(C=C(C#N)C(=O)NCc2ccco2)o1 [8-P19, 2-cyano-N-[(furan-2-yl)methyl]-3-(5-methylfuran-2-yl)prop-2-enamide] | 89.6266 |
| CC(Cl)C(=O)N1CC=C(C(F)(F)F)CC1 (stereo not drawn) [5-J19, 2-chloro-1-[4-(trifluoromethyl)-1,2,3,6-tetrahydropyridin-1-yl]propan-1-one] | 109.654 |
| C=CC(=O)NC1CCC(OCc2cc(C)no2)CC1 (stereo not drawn) [1-M08, N-{4-[(3-methyl-1,2-oxazol-5-yl)methoxy]cyclohexyl}prop-2-enamide] | 100.571 |
| C=CC(=O)Nc1ccccc1Cl [1-O10, N-(2-chlorophenyl)prop-2-enamide] | 122.725 |
| C=CC(=O)N(CC)CC(=O)N1CCCC(c2nccn2C)C1 (stereo not drawn) [3-F03, N-ethyl-N-{2-[3-(1-methyl-1H-imidazol-2-yl)piperidin-1-yl]-2-oxoethyl}prop-2-enamide] | 121.898 |
| NS(=O)(=O)c1cccc2cc(NC(=O)CCl)ccc12 [5-K16, 2-chloro-N-(5-sulfamoylnaphthalen-2-yl)acetamide] | 102.732 |
| CC(Cl)C(=O)NC1CCN(S(C)(=O)=O)C1 (stereo not drawn) [7-I15, 2-chloro-N-(1-methanesulfonylpyrrolidin-3-yl)propanamide] | 89.4819 |
| Cn1cccc1C(=O)CCl [10-B04, 2-chloro-1-(1-methyl-1H-pyrrol-2-yl)ethan-1-one] | 122.188 |
| CC(=O)c1ccc(NC(=O)CCl)cc1 [4-G07, N-(4-acetylphenyl)-2-chloroacetamide] | 93.7589 |
| N#CC(=Cc1cn2cc(Cl)ccc2n1)C(=O)NC1CCCC1 [9-P15, 3-{6-chloroimidazo[1,2-a]pyridin-2-yl}-2-cyano-N-cyclopentylprop-2-enamide] | 106.067 |
| C=CC(=O)NCCNS(=O)(=O)c1cc(C)ccc1F [2-L11, N-[2-(2-fluoro-5-methylbenzenesulfonamido)ethyl]prop-2-enamide] | 119.06 |
| O=C(CCl)Cc1cccc(F)c1 [10-C11, 1-chloro-3-(3-fluorophenyl)propan-2-one] | 113.437 |
| N#CC(=Cc1cccc(F)c1F)C(=O)NCc1ccccc1 [8-B06, N-benzyl-2-cyano-3-(2,3-difluorophenyl)prop-2-enamide] | 77.0124 |
| C=CC(=O)Nc1cc(CC(C)(C)C)no1 [1-I19, N-[3-(2,2-dimethylpropyl)-1,2-oxazol-5-yl]prop-2-enamide] | 109.011 |
| N#CC(=Cc1ccco1)C(=O)NC1CC1 [8-N21, 2-cyano-N-cyclopropyl-3-(furan-2-yl)prop-2-enamide] | 111.867 |
| N#Cc1cc([N+](=O)[O-])ccc1NC(=O)CCl [4-O09, 2-chloro-N-(2-cyano-4-nitrophenyl)acetamide] | 100.619 |
| COC(=O)c1c(C(=O)CCl)c(C)n(C(C)C)c1C [10-K21, methyl 4-(2-chloroacetyl)-2,5-dimethyl-1-(propan-2-yl)-1H-pyrrole-3-carboxylate] | 119.375 |
| O=C(CCl)NCC1CCCCN1C(=O)C(F)(F)F (stereo not drawn) [5-C07, 2-chloro-N-{[1-(2,2,2-trifluoroacetyl)piperidin-2-yl]methyl}acetamide] | 98.3607 |
| CN1C=C(C(F)(F)F)C=CC1=C(C#N)C(=O)Nc1ccccc1F [8-H20, 2-cyano-N-(2-fluorophenyl)-2-[1-methyl-5-(trifluoromethyl)-1,2-dihydropyridin-2-ylidene]acetamide] | 90.2905 |
| C=CC(=O)Nc1ccccc1-n1nccn1 [3-H10, N-[2-(2H-1,2,3-triazol-2-yl)phenyl]prop-2-enamide] | 111.45 |
| O=C(CCl)Nc1ccccc1F [4-M16, 2-chloro-N-(2-fluorophenyl)acetamide] | 111.291 |

| SMILES | % of control remaining [%] |
| --- | --- |
| Cc1cc(CO[C@H]2CC[C@H](NC(=O)CCl)CC2)on1 [6-K19, 2-chloro-N-[(1r,4r)-4-[(3-methyl-1,2-oxazol-5-yl)methoxy]cyclohexyl]acetamide] | 95.6098 |
| Cc1cc(C(=O)CCl)c(C)n1-c1ccc2c(c1)OCO2 [10-K14, 1-[1-(1,3-dioxaindan-5-yl)-2,5-dimethyl-1H-pyrrol-3-yl]-2-chloroethan-1-one] | 139.375 |
| Cc1cc(C)c(NC(=O)C(C)Cl)c(Cl)c1 (stereo not drawn) [6-E10, 2-chloro-N-(2-chloro-4,6-dimethylphenyl)propanamide] | 91.1707 |
| CC(Cl)C(=O)N1CCCC(c2cnn(C)c2)C1 (stereo not drawn) [7-M16, 2-chloro-1-[3-(1-methyl-1H-pyrazol-4-yl)piperidin-1-yl]propan-1-one] | 82.5746 |
| C=CC(=O)Nc1cccc2c1CCN2C(C)=O [1-F05, N-(1-acetyl-2,3-dihydro-1H-indol-4-yl)prop-2-enamide] | 108.308 |
| O=C(CCl)NCCS(=O)(=O)N1CCc2ccccc21 [6-H04, 2-chloro-N-[2-(2,3-dihydro-1H-indole-1-sulfonyl)ethyl]acetamide] | 86.0488 |
| N#CCCSc1ccccc1NC(=O)CCl [6-N12, 2-chloro-N-{2-[(2-cyanoethyl)sulfanyl]phenyl}acetamide] | 88.439 |
| C=CC(=O)N1CCOC(c2nccs2)C1 (stereo not drawn) [3-H09, 1-[2-(1,3-thiazol-2-yl)morpholin-4-yl]prop-2-en-1-one] | 127.471 |
| C=CC(=O)NCc1noc(-c2cccs2)n1 [3-H15, N-{[5-(thiophen-2-yl)-1,2,4-oxadiazol-3-yl]methyl}prop-2-enamide] | 78.7114 |
| C=CC(=O)N1CCCCC(S(C)(=O)=O)C1 (stereo not drawn) [2-E17, 1-(3-methanesulfonylazepan-1-yl)prop-2-en-1-one] | 110.357 |
| O=C(CCl)NCCc1ccc(Cl)cc1Cl [6-M16, 2-chloro-N-[2-(2,4-dichlorophenyl)ethyl]acetamide] | 93.9024 |
| Cc1oc(C(=O)O)cc1C(=O)CCl [10-M21, 4-(2-chloroacetyl)-5-methylfuran-2-carboxylic acid] | 105.625 |
| N#CC(=Cc1cccc(-c2ccncc2)c1)C(=O)NCc1ccco1 [9-B06, 2-cyano-N-[(furan-2-yl)methyl]-3-[3-(pyridin-4-yl)phenyl]prop-2-enamide] | 73.7079 |
| COc1ccccc1CN(C)C(=O)CCl [6-C09, 2-chloro-N-[(2-methoxyphenyl)methyl]-N-methylacetamide] | 82.2927 |
| CC(C)C(C(=O)O)N1C(=O)C=CC1=O (stereo not drawn) [10-I22, 2-(2,5-dioxo-2,5-dihydro-1H-pyrrol-1-yl)-3-methylbutanoic acid] | 115.625 |
| N#CC(=Cc1ccc(-c2ccc(F)cc2)o1)C(=O)NC1CCCCC1 [9-H17, 2-cyano-N-cyclohexyl-3-[5-(4-fluorophenyl)furan-2-yl]prop-2-enamide] | 86.8914 |
| CC(=O)Nc1c(C)cc(C)c(C(=O)CCl)c1C [10-A12, N-[3-(2-chloroacetyl)-2,4,6-trimethylphenyl]acetamide] | 116.875 |
| CC(C)NC(=O)C(C#N)=Cc1ccc(-c2ccc([N+](=O)[O-])cc2)o1 [8-I19, 2-cyano-3-[5-(4-nitrophenyl)furan-2-yl]-N-(propan-2-yl)prop-2-enamide] | 100.249 |
| C=CC(=O)NCc1ncnn1-c1ccccc1 [3-H11, N-[(1-phenyl-1H-1,2,4-triazol-5-yl)methyl]prop-2-enamide] | 105.877 |
| Cn1cc(C(=O)CCl)cc1C(=O)C(Cl)(Cl)Cl [10-N22, 2,2,2-trichloro-1-[4-(2-chloroacetyl)-1-methyl-1H-pyrrol-2-yl]ethan-1-one] | 99.0625 |
| Cl.O=C(CCl)NCC(c1ccccc1Cl)N1CCCC1 (stereo not drawn) [6-G17, 2-chloro-N-[2-(2-chlorophenyl)-2-(pyrrolidin-1-yl)ethyl]acetamide hydrochloride] | 101.415 |
| CC(NC(=O)C(C#N)=Cc1ccccc1)C12CC3CC(CC(C3)C1)C2 (stereo not drawn) [8-N20, N-[1-(adamantan-1-yl)ethyl]-2-cyano-3-phenylprop-2-enamide] | 98.2573 |
| O=S(=O)(CC=C(Cl)Cl)N1CCSSCC1 [10-P19, 5-(3,3-dichloroprop-2-ene-1-sulfonyl)-1,2,5-dithiazepane] | 108.75 |
| Cc1cc(C(=O)C(C)Cl)c(C)n1Cc1ccco1 (stereo not drawn) [10-E06, 2-chloro-1-{1-[(furan-2-yl)methyl]-2,5-dimethyl-1H-pyrrol-3-yl}propan-1-one] | 106.25 |
